# The list shows a part of the results.
# B1: GS14009A-pdi-495-27-495 (Parabacteroides distasonis) (protein)
# chain: FEEVNTDPDSPTDVPTTNLLAYSLYYTSYRLYDRWFAMDEPMTFCGYASKMTYIDESRYNFRTGVQDTNWEYLYRILNNLKDIEKRATFNETPNMLNVSKVMQVHLMQVATDRWRDVPYTDAAKMTDGILQPKYDKQEDIYPGLLATLKEAADGFADGGSDDLGEGDLLFGGDIEKWQRYCNSMRLRLAMRISEVSPALAKETVEEVMGNPTKYPIMESNDDNAFFWWIGTDPNYYEPMADGYRTRKTEYCAADVIVDHMNTREDPRRSSYFQPTKESVEAGEPKYVGYTIGAKANAVASKYSIWGARFFTDLAGFSPYMRVAEPWFCVAEASMLGWNTGISAEDAYNKAVTYSMEENSVSAEDIADYLANAGKFTNDKKQIYYEEWVAMFKQGMEGWSLYRRTGVPDNLYPAPGRPANYSNHNVPPFRSPYPDKERNLNNANCAPFDAEVVDNLWGKQMWWDTRTGVH
# Tests used:
# Assay in all cases: glycan array binding signal (z-score within array); higher = stronger binding
# Conditions in all cases: glycan notation: IUPAC condensed, linker removed
# [1] = target: Gal(b1-3)GlcNAc(b1-6)[Gal(b1-3)]GalNAc
# Outline: (§1)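 From the Consortium for Functional Glycomics database, 3228 arrays were curated, keeping only those whose protein sequence was available. Binding is given as a within-array Z-score averaged across arrays sharing a protein sequence and across linkers. Negative Z-scores can be read as non-binding.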
# [2] = target: Gal(b1-3)GlcNAc6S
# Outline: as §1
# [3] = target: Gal(b1-3)[Fuc(a1-4)]GlcNAc
# Outline: as §1
# [4] = target: Gal(b1-3)[Fuc(a1-4)]GlcNAc(b1-2)Man
# Outline: as §1
# [5] = target: Gal(b1-3)[Fuc(a1-4)]GlcNAc(b1-2)Man(a1-3)[Gal(b1-3)[Fuc(a1-4)]GlcNAc(b1-2)Man(a1-6)]Man(b1-4)GlcNAc(b1-4)[Fuc(a1-6)]GlcNAc
# Outline: as §1
# [6] = target: Gal(b1-3)[Fuc(a1-4)]GlcNAc(b1-3)Gal(b1-3)[Fuc(a1-4)]GlcNAc
# Outline: as §1
# [7] = target: Gal(b1-3)[Fuc(a1-4)]GlcNAc(b1-3)Gal(b1-4)[Fuc(a1-3)]GlcNAc
# Outline: as §1
# [8] = target: Gal(b1-3)[Fuc(a1-4)]GlcNAc(b1-6)GalNAc
# Outline: as §1
# [9] = target: Gal(b1-3)[GlcNAc(b1-6)]GalNAc
# Outline: as §1
# [10] = target: Gal(b1-3)[Neu5Ac(a2-6)]GalNAc
# Outline: as §1
# [11] = target: Gal(b1-3)[Neu5Ac(a2-6)]GlcNAc(b1-4)Gal(b1-4)Glc
# Outline: as §1
# [12] = target: Gal(b1-3)[Neu5Ac(b2-6)]GalNAc
# Outline: as §1
# [13] = target: Gal(b1-4)Gal
# Outline: as §1
# [14] = target: Gal(b1-4)GalNAc(a1-3)[Fuc(a1-2)]Gal(b1-4)GlcNAc
# Outline: as §1
# [15] = target: Gal(b1-4)GalNAc(b1-3)[Fuc(a1-2)]Gal(b1-4)GlcNAc
# Outline: as §1
# [16] = target: Gal(b1-4)Glc
# Outline: as §1
# [17] = target: Gal(b1-4)Glc6S
# Outline: as §1
# [18] = target: Gal(b1-4)GlcNAc
# Outline: as §1
# [19] = target: Gal(b1-4)GlcNAc(a1-6)Gal(b1-4)GlcNAc
# Outline: as §1
# [20] = target: Gal(b1-4)GlcNAc(b1-2)Man
# Outline: as §1
# [21] = target: Gal(b1-4)GlcNAc(b1-2)Man(a1-3)Man(b1-4)GlcNAc(b1-4)GlcNAc
# Outline: as §1
# [22] = target: Gal(b1-4)GlcNAc(b1-2)Man(a1-3)[Gal(b1-4)GlcNAc(b1-2)Man(a1-6)]Man(b1-4)GlcNAc(b1-4)GlcNAc
# Outline: as §1
# [23] = target: Gal(b1-4)GlcNAc(b1-2)Man(a1-3)[Gal(b1-4)GlcNAc(b1-2)Man(a1-6)]Man(b1-4)GlcNAc(b1-4)[Fuc(a1-6)]GlcNAc
# Outline: as §1
# [24] = target: Gal(b1-4)GlcNAc(b1-2)Man(a1-3)[Gal(b1-4)GlcNAc(b1-2)Man(a1-6)][Gal(b1-4)GlcNAc(b1-4)]Man(b1-4)GlcNAc(b1-4)[Fuc(a1-6)]GlcNAc
# Outline: as §1
# [25] = target: Gal(b1-4)GlcNAc(b1-2)Man(a1-3)[Gal(b1-4)GlcNAc(b1-2)Man(a1-6)][GlcNAc(b1-4)]Man(b1-4)GlcNAc(b1-4)[Fuc(a1-6)]GlcNAc
# Outline: as §1
# [26] = target: Gal(b1-4)GlcNAc(b1-2)Man(a1-3)[GlcNAc(b1-2)Man(a1-6)]Man(b1-4)GlcNAc(b1-4)GlcNAc
# Outline: as §1
# [27] = target: Gal(b1-4)GlcNAc(b1-2)Man(a1-3)[GlcNAc(b1-4)][Gal(b1-4)GlcNAc(b1-2)Man(a1-6)]Man(b1-4)GlcNAc(b1-4)GlcNAc
# Outline: as §1
# [28] = target: Gal(b1-4)GlcNAc(b1-2)Man(a1-3)[Man(a1-6)]Man(b1-4)GlcNAc(b1-4)GlcNAc
# Outline: as §1
# [29] = target: Gal(b1-4)GlcNAc(b1-2)Man(a1-6)Man(b1-4)GlcNAc(b1-4)GlcNAc
# Outline: as §1
# [30] = target: Gal(b1-4)GlcNAc(b1-2)Man(a1-6)[GlcNAc(b1-2)Man(a1-3)]Man(b1-4)GlcNAc(b1-4)GlcNAc
# Outline: as §1
# [31] = target: Gal(b1-4)GlcNAc(b1-2)Man(a1-6)[Man(a1-3)]Man(b1-4)GlcNAc(b1-4)GlcNAc
# Outline: as §1
# [32] = target: Gal(b1-4)GlcNAc(b1-2)[Gal(b1-4)GlcNAc(b1-4)]Man(a1-3)[Gal(b1-4)GlcNAc(b1-2)Man(a1-6)]Man(b1-4)GlcNAc(b1-4)GlcNAc
# Outline: as §1
# [33] = target: Gal(b1-4)GlcNAc(b1-2)[Gal(b1-4)GlcNAc(b1-4)]Man(a1-3)[Gal(b1-4)GlcNAc(b1-2)[Gal(b1-4)GlcNAc(b1-6)]Man(a1-6)]Man(b1-4)GlcNAc(b1-4)GlcNAc
# Outline: as §1
# [34] = target: Gal(b1-4)GlcNAc(b1-2)[Gal(b1-4)GlcNAc(b1-4)]Man(a1-3)[GlcNAc(b1-4)][Gal(b1-4)GlcNAc(b1-2)Man(a1-6)]Man(b1-4)GlcNAc(b1-4)GlcNAc
# Outline: as §1
# [35] = target: Gal(b1-4)GlcNAc(b1-2)[Gal(b1-4)GlcNAc(b1-4)]Man(a1-3)[GlcNAc(b1-4)][Gal(b1-4)GlcNAc(b1-2)[Gal(b1-4)GlcNAc(b1-6)]Man(a1-6)]Man(b1-4)GlcNAc(b1-4)GlcNAc
# Outline: as §1
# [36] = target: Gal(b1-4)GlcNAc(b1-2)[Gal(b1-4)GlcNAc(b1-6)]Man(a1-6)[Gal(b1-4)GlcNAc(b1-2)Man(a1-3)]Man(b1-4)GlcNAc(b1-4)GlcNAc
# Outline: as §1
# [37] = target: Gal(b1-4)GlcNAc(b1-2)[Gal(b1-4)GlcNAc(b1-6)]Man(a1-6)[Gal(b1-4)GlcNAc(b1-2)Man(a1-3)]Man(b1-4)GlcNAc(b1-4)[Fuc(a1-6)]GlcNAc
# Outline: as §1
binder,measurement,setting,value
B1,glycan array binding signal (z-score),[1],1.19
same,glycan array binding signal (z-score),[2],-0.46
same,glycan array binding signal (z-score),[3],-0.376
same,glycan array binding signal (z-score),[4],0.388
same,glycan array binding signal (z-score),[5],1.2
same,glycan array binding signal (z-score),[6],-0.267
same,glycan array binding signal (z-score),[7],-0.102
same,glycan array binding signal (z-score),[8],0.634
same,glycan array binding signal (z-score),[9],-0.222
same,glycan array binding signal (z-score),[10],-0.338
same,glycan array binding signal (z-score),[11],-0.357
same,glycan array binding signal (z-score),[12],-0.306
same,glycan array binding signal (z-score),[13],0.015
same,glycan array binding signal (z-score),[14],-0.304
same,glycan array binding signal (z-score),[15],-0.198
same,glycan array binding signal (z-score),[16],-0.033
same,glycan array binding signal (z-score),[17],0.186
same,glycan array binding signal (z-score),[18],-0.274
same,glycan array binding signal (z-score),[19],-0.233
same,glycan array binding signal (z-score),[20],0.015
same,glycan array binding signal (z-score),[21],-0.62
same,glycan array binding signal (z-score),[22],0.093
same,glycan array binding signal (z-score),[23],0.355
same,glycan array binding signal (z-score),[24],-0.024
same,glycan array binding signal (z-score),[25],-0.845
same,glycan array binding signal (z-score),[26],-0.19
same,glycan array binding signal (z-score),[27],15.2
same,glycan array binding signal (z-score),[28],0.358
same,glycan array binding signal (z-score),[29],-0.623
same,glycan array binding signal (z-score),[30],-0.264
same,glycan array binding signal (z-score),[31],-0.365
same,glycan array binding signal (z-score),[32],-0.051
same,glycan array binding signal (z-score),[33],-0.252
same,glycan array binding signal (z-score),[34],0.2
same,glycan array binding signal (z-score),[35],-0.268
same,glycan array binding signal (z-score),[36],0.216
same,glycan array binding signal (z-score),[37],1.67

# Source: the supplement of paper PMC8728848
